Measurements reported in the supplement of paper PMC3334620.
Whole data set: some 33,000 sequences, median “E-score (-0.5 to 0.5)” near -0.017, cut for the highest 2% near 0.3. The list shows a part of the results.

Each sequence was assayed against T1, Sut1 (UniProt P53032) (assay: PBM E-score (8-mer binding enrichment) (E-score (-0.5 to 0.5)); higher = stronger / more preferred TF binding; most listed sequences are background and not binding sites). Conditions: protein concentration: 200 nM; construct: GST-full length.
T1 sequence: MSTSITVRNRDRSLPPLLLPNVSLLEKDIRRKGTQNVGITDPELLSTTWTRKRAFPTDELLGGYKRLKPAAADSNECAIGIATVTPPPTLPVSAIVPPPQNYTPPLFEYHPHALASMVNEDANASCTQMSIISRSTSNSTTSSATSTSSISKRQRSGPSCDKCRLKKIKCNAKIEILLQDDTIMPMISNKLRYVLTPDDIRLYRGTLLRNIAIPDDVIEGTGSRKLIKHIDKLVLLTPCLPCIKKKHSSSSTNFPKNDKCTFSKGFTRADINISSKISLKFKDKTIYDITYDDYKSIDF
Outline: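 GST-tagged yeast TFs (full-length or DNA-binding domain) were made by PURExpress in vitro transcription/translation and applied at about 100-200 nM to universal all-10-mer Agilent arrays. The arrays were made double-stranded by primer extension, on fresh or once-stripped slides. Bound protein was detected with fluorescent anti-GST, and scans were normalised with masliner. Each ungapped eight-base word, pooled with its reverse complement, received an E-score (modified Wilcoxon-Mann-Whitney statistic) from the Universal PBM Analysis Suite.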

Sequence	PBM E-score
TAAGCCTA	0.155
AACTATAA	0.204
AATACTCG	0.139
CTACAAGA	0.0288
CGTCTGTC	-0.213
CGCGCACG	-0.173
GACATGAA	0.051
CGCTTTCA	0.0224
GTTCTCAA	0.167
AGCCTATG	-0.222
GATGGACC	-0.0525
CGACGCAC	0.0224
ACTTCGCG	0.00486
ACTACAAG	0.0409
GGACTTCA	0.321
CGTAGCAG	-0.128
ACTTGGCA	-0.136
GAGTGCCC	-0.186
GGTTCACA	-0.178
ACAGTCAC	-0.176
GGCATACA	-0.0976
CCCAGAGC	-0.343
TAAGTTGA	0.0816
CAGGCGTA	-0.0738
ACTTCCCT	-0.1

Sequence	PBM E-score
TAAGCGCA	-0.168
ACCAATGG	-0.0511
CCCCAGAA	-0.173
CACCCACC	-0.101
ATCCGCGA	-0.0287
AAGGTATA	0.0577
TATGGCCA	-0.0105
CTTAACTC	0.173
AGTCGACA	0.00252
CGAACTTA	0.0781
ATCGTCTA	-0.0411
CGACGTGC	-0.197
CCTCGAAA	0.14
AAGGAGTA	0.0607
AATTGTCG	-0.0404
CCAAGCCG	-0.219
ACCAGCAC	-0.131
GGCGATGA	-0.143
CGGCCAGC	0.024
AGCCCGAG	-0.098
AGAGCTCT	-0.219
TACACACA	0.123
CTAACAAA	0.084
CGTCGATC	0.0411
CTCATCGC	-0.184

Sequence	PBM E-score
ACCATAGA	0.0209
GTGCATGA	-0.115
AACCAGTA	0.0479
GTAACAAC	0.0977
AAGTCTTA	-0.0979
GGCGTGCA	-0.037
GCTAACAA	-0.0415
AAACTGAT	-0.022
CTCAGTTC	-0.0325
GCCTACCA	-0.191
ATAATGAG	0.238
CACACCTG	-0.239
AGGCACGG	0.103
ATCTGTCG	-0.0193
CCATGCTA	-0.214
ATCCCTTA	-0.0624
TCTTCAAA	0.192
AGATTGAT	0.0147
AAGACGTG	-0.0253
GCATAGTA	-0.0141
CATGTTGA	0.227
GCCGTCTA	-0.22
AAGGAGCG	-0.235
GTCTGGAA	-0.184
GACGTTAC	-0.13

Sequence	PBM E-score
AAGATGGC	-0.0118
GATATCCC	0.0559
AATTCACC	0.113
CAATGTGC	-0.0429
GATATGCA	-0.021
ACGGATCC	0.0774
ATGATCGA	0.0913
AGGGTACC	-0.227
GCGACATA	-0.007
GTGCAACA	-0.194
TACCCTAA	-0.117
AGGTTTAT	0.246
GTGTGATA	0.0682
CACTTACC	0.068
GAAGTAAC	0.0652
TGCCATAA	0.113
CGGGGAAA	0.198
CCTGTGCG	-0.131
CAACTTAA	0.198
CGATGTTA	0.0817
AGTAGAAA	0.24
CTACACCC	-0.286
CGGTCGCC	-0.061
GCGGCCAC	-0.128
TCGCACCA	0.022

Sequence	PBM E-score
CGCACGGA	0.135
GAGATTAC	0.0292
ATAATTGA	0.204
GACGAAGA	0.124
CCCTCGCG	-0.204
TAGTGCGA	-0.0645
TAGCTTGA	-0.0326
CGTGTAAC	-0.00945
ATCCCTCC	-0.194
TTACCCAA	-0.0695
ACCACACT	-0.00765
CGGTATCC	-0.211
ATAAATAT	0.341
CTGAGGGC	-0.306
ATAGGAGG	-0.187
TGGAATAA	0.122
AGTGAGAA	0.23
AGTACCAT	0.0576
GCTCGCTA	-0.159
AGCGCGCG	-0.0911
AATTCACT	0.161
ATCCTCAC	0.0417
ATTGAAGA	0.0287
ACAGTCCT	-0.203
AAACCTCG	0.0173

Sequence	PBM E-score
CAGACATG	-0.16
AGCTACCC	-0.266
ATTATGCC	0.133
ACAACCGA	0.194
CGACCGTC	-0.205
CGCACTCC	0.12
AATTTTTC	0.184
ACCCGAAT	0.026
ATCTAAAA	0.104
CTGATAAC	0.0944
AACGGACA	0.24
AGGCGTAC	0.0598
ACGGAGCC	0.219
CCTAATGC	-0.221
ACTGACTG	-0.221
TAATACTA	0.273
ATCCGCAC	-0.0365
ATCTTGCC	-0.0399
CCATAAAG	0.023
AGACGCAT	-0.0444
GGATACAC	-0.0246
CACAATCA	0.132
ACAGTGCC	-0.0419
ACCTCGGC	0.0761
ACTTGTAG	-0.118

Sequence	PBM E-score
GACTTAGC	-0.206
TCCTCGAA	-0.0557
GAAAATTC	0.123
CGTAAGGC	-0.231
CTAGTTTC	-0.0244
TCCCCGGA	0.364
GAACCGCC	0.00633
CAGGGGAA	-0.224
CGTTCGCC	-0.115
ATTGGACC	0.00836
GCTGGCAC	-0.374
CAGCACCC	-0.162
ATCAAGAG	0.117
ATTTGTCC	0.186
ACGTGCGA	-0.248
CTCACCAA	0.115
ATGGAATC	0.117
TAGCTATA	-0.0172
CTCATGGC	-0.0874
AAGGACTG	-0.278
GCCCTAAC	0.106
GTTCCCGA	-0.00112
ACTACATA	0.137
CTAATCAC	0.176
CTTTCTCC	0.034

Sequence	PBM E-score
CTGATGCC	0.00519
AACCGCAA	0.116
ACACAGTC	-0.089
CCGTCTAG	-0.123
CCAAAGCC	-0.07
GTCTCTAA	-0.0975
CGGCCACA	0.00283
ACGACCCA	-0.12
GCATGCTA	-0.141
CATTGATC	0.0953
ATGTATAC	0.166
GACGAGCC	-0.22
CGGGCCTA	-0.0439
GAACTTTA	0.145
CATCCGGG	-0.0527
TTAAACAA	0.132
CAAAAGGC	-0.106
GGCACGCC	-0.252
CATTTTCC	0.149
GTATACGA	-0.0202
AATGAACA	0.107
GCAACAGA	0.00797
AACCTCAT	0.0566
ACCACAGG	-0.113
ATCCCGCC	-0.137

Sequence	PBM E-score
ATCTCACG	-0.0224
ATCCTTAG	-0.0491
AGATAGAT	-0.0228
GGCTATAA	0.0237
CAAAGCGC	0.0135
ACACGGCG	0.026
CGGACCAG	0.196
ACCCGGAT	-0.107
ATGAATGG	0.157
AGGCTCAA	-0.194
ACGCGTAA	0.0156
CGCAATTC	0.0891
CTATCTAC	0.0306
GCCTGACA	-0.261
TGGAGAAA	-0.00929
TCTGTGCA	-0.0526
TACCAACA	0.0754
AGTAAGTC	0.0732
AATCCCGC	0.0742
CCAATCTA	-0.0455
CGTATACC	-0.263
TAGAGGGA	-0.131
CTGTAAAC	-0.0588
ACGCCACA	-0.012
CTTCCCTC	-0.174

Sequence	PBM E-score
ACCTCCCT	-0.299
ACCGGAGC	0.353
AAGCAGGT	-0.0614
CGGCATCC	0.0152
CAACCTCG	-0.0346
CGAATACG	-0.0489
CGCCAGTA	-0.21
GATTCGCC	0.00954
CAGTTTCC	0.03
AAGGTCCG	0.407
GATCGTAC	-0.0542
ACCACCTC	-0.052
TGGCCAAA	-0.0258
CCCTACAA	0.0572
GGAGGGTA	-0.187
GGCAAAAA	0.0677
AAAACGCG	0.0084
AGTCGTCA	-0.0673
ACATCTCT	-0.036
CTAGCTTC	-0.0205
AACATTTG	-0.0993
ACGAGTAC	-0.096
CCCACATC	-0.125
CAACCGTG	-0.0424
AAGGAATA	0.0336

Sequence	PBM E-score
CGGCGGGA	-0.235
CACGCCCA	-0.104
ATACGCCA	-0.135
AGAGGAGG	-0.182
AATTTTGG	0.12
AAATAACC	0.115
TCGTATAA	0.238
CCAAAGAG	0.0616
GAGGTGAA	0.0586
GCTTCAAC	-0.0669
CGTCGAAA	0.11
GGCCGAAC	0.0161
CCCTCCGG	0.00905
GCATGTCA	-0.0214
CTCGTCAA	-0.0181
CTGTCCCA	-0.336
GAGCCGCC	-0.0201
AGTTATAC	0.208
ACCGAGAC	-0.135
ACTAAGAC	-0.0184
GTTCGCGA	0.0195
GAATCGTA	0.0897
AGCTTTAA	0.121
GAGAGCAA	0.0372
GCTAAACC	-0.0582

Sequence	PBM E-score
AGATTACA	0.0344
GGTCAACC	-0.0856
CCTCAGCC	-0.259
ACCCGGAG	0.416
GAACTTGC	-0.0387
CTTCGATA	0.213
GAGGATTA	-0.00884
GCCGACAC	-0.265
GGCAGTAA	-0.076
GCAGCACA	-0.1
AAACCAAA	0.167
ACTGTAAA	0.146
TGACCGAA	0.0569
ATGGGTAG	-0.31
CATAAGAC	0.0803
CACGCTTA	0.0659
AGGCTAAT	0.0798
AATGCTGT	-0.153
GCCTGCCA	-0.134
CATGTACC	-0.234
CGGGGGTA	-0.0332
AGTGTGCC	-0.134
CCCGAAAA	0.177
AGCCAGCC	-0.194
GTCAACAA	0.00063

Sequence	PBM E-score
AAATAGTA	0.228
ACTGTCTG	-0.11
CCAAAACC	-0.0129
CCAGCGAA	0.00997
CAGGTGAA	-0.0804
CAGATCCA	0.02
CTATCGAG	-0.152
GGTCACCA	-0.342
CCGTACTC	0.0695
GCCGCCTA	-0.287
ACCAACAT	0.0524
CTGTGTAC	0.00938
AGTTATCG	0.192
AAGCTAAT	0.102
CGTGGGGC	-0.272
CGTTACGA	0.114
GCATGCGA	0.0246
GCCGTGAC	-0.0654
GGTTCTGA	-0.075
GATTTCAA	0.147
TGATAAAA	0.283
ATGATTAG	0.109
GGCTACCA	-0.0678
AGCCACCT	-0.248
ATAGGACG	-0.114

Sequence	PBM E-score
AATCAAGA	0.0025
TAAAAGTA	0.225
ATGGCCCA	-0.102
CCCCTCCC	-0.301
CGTGACAA	-0.15
CTTCCCGA	0.0268
GGAGATAC	0.0832
ATCTTGAG	0.00289
GGGACGAA	-0.246
CAGGGCGA	-0.0978
AACGCATT	0.11
ACTGACCG	-0.108
CATCTTGA	-0.0585
ACGTAACC	-0.115
GGACATTA	0.222
GGATGGTA	0.0953
CCCGGTGA	-0.171
CAATGATG	0.0603
ATCGACTC	-0.114
